# Reference: the supplement of paper PMC8728848
# The other results are listed elsewhere or left out.
# B1: AAL (Aleuria aurantia), P18891 (protein)
# chain: PTEFLYTSKIAAISWAATGGRQQRVYFQDLNGKIREAQRGGDNPWTGGSSQNVIGEAKLFSPLAAVTWKSAQGIQIRVYCVNKDNILSEFVYDGSKWITGQLGSVGVKVGSNSKLAALQWGGSESAPPNIRVYYQKSNGSGSSIHEYVWSGKWTAGASFGSTVPGTGIGATAIGPGRLRIYYQATDNKIREHCWDSNSWYVGGFSASASAGVSIAAISWGSTPNIRVYWQKGREELYEAAYGGSWNTPGQIKDASRPTPSLPDTFIAANSSGNIDISVFFQASGVSLQQWQWISGKGWSIGAVVPTGTPAGW
# Key:
# Test in all cases: glycan array binding signal (z-score within array); higher = stronger binding
# Conditions in all cases: glycan notation: IUPAC condensed, linker removed
# [1] = biological target: Neu5Ac(a2-6)Gal(b1-4)GlcNAc(b1-2)Man(a1-6)Man(b1-4)GlcNAc(b1-4)GlcNAc
# Procedure, shortened: (§1)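 Negative Z-scores can be read as non-binding. The Z-score is calculated within each array and then averaged across arrays of one protein sequence at different concentrations or buffers and across linkers. Arrays, 3228 in all, were curated from the Consortium for Functional Glycomics database and kept only where the protein sequence was available.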
# [2] = biological target: Neu5Ac(a2-6)Gal(b1-4)GlcNAc(b1-2)Man(a1-6)[Gal(b1-4)GlcNAc(b1-2)Man(a1-3)]Man(b1-4)GlcNAc(b1-4)GlcNAc
# Procedure, shortened: as §1
# [3] = biological target: Neu5Ac(a2-6)Gal(b1-4)GlcNAc(b1-2)Man(a1-6)[GlcNAc(b1-2)Man(a1-3)]Man(b1-4)GlcNAc(b1-4)GlcNAc
# Procedure, shortened: as §1
# [4] = biological target: Neu5Ac(a2-6)Gal(b1-4)GlcNAc(b1-2)Man(a1-6)[Man(a1-3)]Man(b1-4)GlcNAc(b1-4)GlcNAc
# Procedure, shortened: as §1
# [5] = biological target: Neu5Ac(a2-6)Gal(b1-4)GlcNAc(b1-3)Gal(b1-3)GlcNAc
# Procedure, shortened: as §1
# [6] = biological target: Neu5Ac(a2-6)Gal(b1-4)GlcNAc(b1-3)Gal(b1-4)GlcNAc
# Procedure, shortened: as §1
# [7] = biological target: Neu5Ac(a2-6)Gal(b1-4)GlcNAc(b1-3)Gal(b1-4)GlcNAc(b1-3)Gal(b1-4)GlcNAc
# Procedure, shortened: as §1
# [8] = biological target: Neu5Ac(a2-6)Gal(b1-4)GlcNAc(b1-3)Gal(b1-4)[Fuc(a1-3)]GlcNAc(b1-3)Gal(b1-4)[Fuc(a1-3)]GlcNAc
# Procedure, shortened: as §1
# [9] = biological target: Neu5Ac(a2-6)Gal(b1-4)GlcNAc(b1-3)GalNAc
# Procedure, shortened: as §1
# [10] = biological target: Neu5Ac(a2-6)Gal(b1-4)GlcNAc6S
# Procedure, shortened: as §1
# Neu5Ac(a2-6)GalNAc = biological target: Neu5Ac(a2-6)GalNAc
# Procedure, shortened: as §1
# [11] = biological target: Neu5Ac(a2-6)GalNAc(b1-4)GlcNAc
# Procedure, shortened: as §1
# [12] = biological target: Neu5Ac(a2-6)GlcNAc(b1-4)GlcNAc
# Procedure, shortened: as §1
# [13] = biological target: Neu5Ac(a2-6)GlcNAc(b1-4)GlcNAc(b1-4)GlcNAc
# Procedure, shortened: as §1
# Neu5Ac(a2-8)Neu5Ac = biological target: Neu5Ac(a2-8)Neu5Ac
# Procedure, shortened: as §1
# [14] = biological target: Neu5Ac(a2-8)Neu5Ac(a2-3)Gal(b1-4)Glc
# Procedure, shortened: as §1
# [15] = biological target: Neu5Ac(a2-8)Neu5Ac(a2-3)[Gal(b1-3)GalNAc(b1-4)]Gal(b1-4)Glc
# Procedure, shortened: as §1
# [16] = biological target: Neu5Ac(a2-8)Neu5Ac(a2-3)[GalNAc(b1-4)]Gal(b1-4)Glc
# Procedure, shortened: as §1
# [17] = biological target: Neu5Ac(a2-8)Neu5Ac(a2-8)Neu5Ac
# Procedure, shortened: as §1
# [18] = biological target: Neu5Ac(a2-8)Neu5Ac(a2-8)Neu5Ac(a2-3)Gal(b1-4)Glc
# Procedure, shortened: as §1
# [19] = biological target: Neu5Ac(a2-8)Neu5Ac(a2-8)Neu5Ac(a2-3)[GalNAc(b1-4)]Gal(b1-4)Glc
# Procedure, shortened: as §1
# [20] = biological target: Neu5Ac(a2-8)Neu5Ac(a2-8)Neu5Ac(a2-8)Neu5Ac(a2-3)[GalNAc(b1-4)]Gal(b1-4)Glc
# Procedure, shortened: as §1
# Neu5Ac(b1-6)GalNAc = biological target: Neu5Ac(b1-6)GalNAc
# Procedure, shortened: as §1
# [21] = biological target: Neu5Ac(b2-6)Gal(b1-4)GlcNAc
# Procedure, shortened: as §1
# Neu5Ac(b2-6)GalNAc = biological target: Neu5Ac(b2-6)GalNAc
# Procedure, shortened: as §1
# [22] = biological target: Neu5Ac9Ac(a2-3)Gal(b1-3)GlcNAc
# Procedure, shortened: as §1
# [23] = biological target: Neu5Ac9Ac(a2-3)Gal(b1-4)GlcNAc
# Procedure, shortened: as §1
# [24] = biological target: Neu5Ac9Ac(a2-6)Gal(b1-4)GlcNAc
# Procedure, shortened: as §1
# [25] = biological target: Neu5Gc(a2-3)Gal(b1-3)GlcNAc
# Procedure, shortened: as §1
# [26] = biological target: Neu5Gc(a2-3)Gal(b1-3)[Fuc(a1-4)]GlcNAc
# Procedure, shortened: as §1
# Neu5Gc(a2-3)Gal(b1-4)Glc = biological target: Neu5Gc(a2-3)Gal(b1-4)Glc
# Procedure, shortened: as §1
# [27] = biological target: Neu5Gc(a2-3)Gal(b1-4)GlcNAc
# Procedure, shortened: as §1
# [28] = biological target: Neu5Gc(a2-3)Gal(b1-4)[Fuc(a1-3)]GlcNAc
# Procedure, shortened: as §1
# [29] = biological target: Neu5Gc(a2-3)Gal(b1-4)[Fuc(a1-4)]GlcNAc
# Procedure, shortened: as §1
# [30] = biological target: Neu5Gc(a2-6)Gal(b1-4)GlcNAc
# Procedure, shortened: as §1
# Neu5Gc(a2-6)GalNAc = biological target: Neu5Gc(a2-6)GalNAc
# Procedure, shortened: as §1
# [31] = biological target: Neu5Gc(b2-6)Gal(b1-4)GlcNAc
# Procedure, shortened: as §1
binder,measurement,setting,value
B1,glycan array binding signal (z-score),[1],-0.432
same,glycan array binding signal (z-score),[2],-0.434
same,glycan array binding signal (z-score),[3],-0.423
same,glycan array binding signal (z-score),[4],-0.431
same,glycan array binding signal (z-score),[5],-0.424
same,glycan array binding signal (z-score),[6],-0.505
same,glycan array binding signal (z-score),[7],-0.427
same,glycan array binding signal (z-score),[8],1.28
same,glycan array binding signal (z-score),[9],-0.392
same,glycan array binding signal (z-score),[10],-0.453
same,glycan array binding signal (z-score),Neu5Ac(a2-6)GalNAc,-0.507
same,glycan array binding signal (z-score),[11],-0.502
same,glycan array binding signal (z-score),[12],-0.432
same,glycan array binding signal (z-score),[13],-0.447
same,glycan array binding signal (z-score),Neu5Ac(a2-8)Neu5Ac,-0.473
same,glycan array binding signal (z-score),[14],-0.543
same,glycan array binding signal (z-score),[15],-0.423
same,glycan array binding signal (z-score),[16],-0.499
same,glycan array binding signal (z-score),[17],-0.526
same,glycan array binding signal (z-score),[18],-0.516
same,glycan array binding signal (z-score),[19],-0.505
same,glycan array binding signal (z-score),[20],-0.493
same,glycan array binding signal (z-score),Neu5Ac(b1-6)GalNAc,-0.567
same,glycan array binding signal (z-score),[21],-0.478
same,glycan array binding signal (z-score),Neu5Ac(b2-6)GalNAc,-0.441
same,glycan array binding signal (z-score),[22],-0.444
same,glycan array binding signal (z-score),[23],-0.441
same,glycan array binding signal (z-score),[24],-0.522
same,glycan array binding signal (z-score),[25],-0.512
same,glycan array binding signal (z-score),[26],1.09
same,glycan array binding signal (z-score),Neu5Gc(a2-3)Gal(b1-4)Glc,-0.487
same,glycan array binding signal (z-score),[27],-0.496
same,glycan array binding signal (z-score),[28],0.903
same,glycan array binding signal (z-score),[29],1.6
same,glycan array binding signal (z-score),[30],-0.471
same,glycan array binding signal (z-score),Neu5Gc(a2-6)GalNAc,-0.478
same,glycan array binding signal (z-score),[31],-0.404
